Sequences with one replicate were seen in a single cluster, so their values are uncertain.
These sequences were tested on ATP (assay: switch fluorescence ratio, 500 uM ATP over buffer (Cy3 cluster intensity, sum of 5 cycles each) (fold (ratio)); higher = stronger signal-on switching upon ATP binding; sequences stand for … in TCGTCGGCAGCGTCAGATGTGTATAAGAGACAGTTTTTTTTTTTTTTTTTTTTTTTTT…TC). Settings: aptamer strand: ATP DNA aptamer (quencher-CACCTGGGGGAGTATTGCGGAGGAAGG + anchor), 100 nM annealed; ATP concentration: 500 uM; one replicate.
Summary of the method: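 Cy3-labelled switching-strand clusters on a modified Illumina MiSeq flow-cell were annealed to 100 nM quencher-labelled ATP aptamer, imaged in selection buffer, then imaged after 15 min with 500 uM ATP at 22 °C. Five buffer/ATP cycles ran, with NaOH stripping and re-annealing between them. The fluorescence ratio is summed target-cycle over summed buffer-cycle Cy3 intensity per cluster, averaged per switch-domain sequence. Clusters outside 100-1000 RFU were excluded.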
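Also: ATP exposure 15 min at 22 °C before imaging.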

Row | Sequence | switch fluorescence ratio
1 | TCATGAAA | 1.04
2 | TCATGAGAGG | 0.992
3 | TCATGATGGA | 1
4 | TCATGATTAA | 0.997
5 | TCATGCAGTA | 1.02
6 | TCATGCCTCG | 1.09
7 | TCATGGGAGG | 0.974
8 | TCATGGTAGG | 0.965
9 | TCATGGTTAG | 1
10 | TCATGTATGT | 1.04
11 | TCATGTGGCA | 1.04
12 | TCATTAAATT | 0.998
13 | TCATTAACAT | 0.978
14 | TCATTATCAT | 0.97
15 | TCATTCTGTG | 0.962
16 | TCATTTTCAT | 0.978
17 | TCCAAAGAC | 1.02
18 | TCCAACAGTT | 1.02
19 | TCCAAGAAGA | 1.01
20 | TCCAATTCGA | 1.02
21 | TCCAATTTAA | 1.01
22 | TCCACCCGTG | 1.05
23 | TCCACCGTGT | 1.24
24 | TCCACCTGAT | 1.05
25 | TCCACGAAA | 1.19

Row | Sequence | switch fluorescence ratio
26 | TCCAGAACAA | 1.28
27 | TCCAGATATT | 0.939
28 | TCCAGATCTC | 0.978
29 | TCCAGGCCTT | 0.996
30 | TCCAGTGCGT | 1.03
31 | TCCAGTGTTC | 1
32 | TCCAGTTAAG | 1.02
33 | TCCCACATTC | 1.11
34 | TCCCACGTTG | 1.09
35 | TCCCAGCTTT | 1.04
36 | TCCCCAGTGT | 1.21
37 | TCCCCATAAC | 1.38
38 | TCCCCTAGGA | 1.08
39 | TCCCCTCTTC | 0.956
40 | TCCCGAATTG | 1.02
41 | TCCCGATCC | 1.19
42 | TCCCGCCGCC | 3.74
43 | TCCCGCTCTA | 1.46
44 | TCCCGGAATG | 1.66
45 | TCCCTATGTC | 1.05
46 | TCCCTCACGG | 1.34
47 | TCCCTCGATT | 0.997
48 | TCCCTGAGAG | 0.979
49 | TCCCTGGGTC | 1.05
50 | TCCCTTGTAC | 1.37

Row | Sequence | switch fluorescence ratio
51 | TCCGACTGTG | 1.11
52 | TCCGAGAAGC | 1.45
53 | TCCGAGGCTT | 1.1
54 | TCCGCCAGTT | 3.71
55 | TCCGCCGTGG | 0.988
56 | TCCGCCTAAT | 2.54
57 | TCCGCTAAAA | 1.08
58 | TCCGGCAGGA | 0.945
59 | TCCGGCGAGC | 1.09
60 | TCCGGCGATA | 1.01
61 | TCCGGCGGT | 1.76
62 | TCCGGGCGTA | 1.05
63 | TCCGGTAC | 3.72
64 | TCCGGTGGTC | 0.995
65 | TCCGGTTGCT | 1.18
66 | TCCGGTTTGT | 1.05
67 | TCCGTAGGAA | 1.09
68 | TCCGTCCGTT | 1.32
69 | TCCGTCTGGT | 0.996
70 | TCCGTGGTTG | 1.04
71 | TCCGTTATGA | 1.14
72 | TCCGTTGCAT | 3.89
73 | TCCGTTTTAT | 1.01
74 | TCCTAAACAG | 1.01
75 | TCCTACACTT | 1

Row | Sequence | switch fluorescence ratio
76 | TCCTACAGGA | 1.06
77 | TCCTAGAAGC | 1.06
78 | TCCTAGACGC | 1.25
79 | TCCTATCTGA | 1.01
80 | TCCTCCAAGG | 3.8
81 | TCCTCGGCCT | 2.24
82 | TCCTCGGGAG | 1.08
83 | TCCTGCATTT | 1.09
84 | TCCTGGGG | 1.12
85 | TCCTGTGACT | 0.997
86 | TCCTGTGGG | 0.988
87 | TCCTGTGTCA | 1.04
88 | TCCTGTTAAT | 0.895
89 | TCCTTACTAG | 1.06
90 | TCCTTAGACC | 0.993
91 | TCCTTATTGA | 1.04
92 | TCCTTGTTTG | 1
93 | TCCTTTAGGA | 1.02
94 | TCCTTTGTGC | 1.05
95 | TCGAAAATAG | 1.03
96 | TCGAAATGCG | 0.994
97 | TCGAAATTT | 1.16
98 | TCGAACACA | 1.04
99 | TCGAACTATG | 1.03
100 | TCGAAGAA | 1.02
